# Results taken from the supplement of paper PMC8728848.
# This is one part of the list.
# Columns and labels:
# Experiment in all cases: glycan array binding signal (z-score within array); higher = stronger binding
# Details in all cases: glycan notation: IUPAC condensed, linker removed; mutation: R343I
# [1] = target: Gal(b1-4)GlcNAc(b1-3)Gal(b1-4)GlcNAc(b1-3)Gal(b1-4)GlcNAc
# In short: (§1)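 The binding signal is a Z-score computed within each array. Data were drawn from 3228 arrays in the Consortium for Functional Glycomics database, restricted to those with a known protein sequence. Scores were averaged over arrays of the same protein sequence at different concentrations or buffers, and over linkers, and negative values can be taken as non-binding.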
# [2] = target: Gal(b1-4)GlcNAc(b1-3)Gal(b1-4)[Fuc(a1-3)]GlcNAc(b1-3)Gal(b1-4)[Fuc(a1-3)]GlcNAc
# In short: as §1
# [3] = target: Gal(b1-4)GlcNAc(b1-3)GalNAc
# In short: as §1
# [4] = target: Gal(b1-4)GlcNAc(b1-3)[Gal(b1-4)GlcNAc(b1-6)]Gal(b1-4)GlcNAc
# In short: as §1
# [5] = target: Gal(b1-4)GlcNAc(b1-3)[GlcNAc(b1-6)]Gal(b1-4)GlcNAc
# In short: as §1
# [6] = target: Gal(b1-4)GlcNAc(b1-6)Gal(b1-4)GlcNAc
# In short: as §1
# [7] = target: Gal(b1-4)GlcNAc(b1-6)Gal(b1-4)GlcNAc(b1-6)GalNAc
# In short: as §1
# [8] = target: Gal(b1-4)GlcNAc(b1-6)GalNAc
# In short: as §1
# [9] = target: Gal(b1-4)GlcNAc(b1-6)[Gal(b1-3)]GalNAc
# In short: as §1
# Gal3S(b1-3)GalNAc = target: Gal3S(b1-3)GalNAc
# In short: as §1
# Gal3S(b1-3)GlcNAc = target: Gal3S(b1-3)GlcNAc
# In short: as §1
# [10] = target: Gal3S(b1-3)[Fuc(a1-4)]GlcNAc
# In short: as §1
# Gal3S(b1-4)Glc = target: Gal3S(b1-4)Glc
# In short: as §1
# Gal3S(b1-4)Glc6S = target: Gal3S(b1-4)Glc6S
# In short: as §1
# Gal3S(b1-4)GlcNAc = target: Gal3S(b1-4)GlcNAc
# In short: as §1
# Gal3S(b1-4)GlcNAc6S = target: Gal3S(b1-4)GlcNAc6S
# In short: as §1
# [11] = target: Gal3S(b1-4)[Fuc(a1-3)]Glc
# In short: as §1
# Gal3S4S(b1-4)GlcNAc = target: Gal3S4S(b1-4)GlcNAc
# In short: as §1
# Gal3S6S(b1-4)GlcNAc = target: Gal3S6S(b1-4)GlcNAc
# In short: as §1
# Gal3S6S(b1-4)GlcNAc6S = target: Gal3S6S(b1-4)GlcNAc6S
# In short: as §1
# Gal4S(b1-4)GlcNAc = target: Gal4S(b1-4)GlcNAc
# In short: as §1
# Gal4S6S(b1-4)GlcNAc = target: Gal4S6S(b1-4)GlcNAc
# In short: as §1
# Gal6S(b1-4)Glc = target: Gal6S(b1-4)Glc
# In short: as §1
# Gal6S(b1-4)Glc6S = target: Gal6S(b1-4)Glc6S
# In short: as §1
# Gal6S(b1-4)GlcNAc = target: Gal6S(b1-4)GlcNAc
# In short: as §1
# Gal6S(b1-4)GlcNAc6S = target: Gal6S(b1-4)GlcNAc6S
# In short: as §1
# GalNAc(a1-3)Gal = target: GalNAc(a1-3)Gal
# In short: as §1
# GalNAc(a1-3)GalNAc = target: GalNAc(a1-3)GalNAc
# In short: as §1
# GalNAc(b1-3)Gal = target: GalNAc(b1-3)Gal
# In short: as §1
# [12] = target: GalNAc(b1-3)Gal(a1-4)Gal(b1-4)GlcNAc
# In short: as §1
# GalNAc(b1-3)GalNAc = target: GalNAc(b1-3)GalNAc
# In short: as §1
# GalNAc(b1-4)GlcNAc = target: GalNAc(b1-4)GlcNAc
# In short: as §1
# Glc(a1-4)Glc = target: Glc(a1-4)Glc
# In short: as §1
# Glc(a1-6)Glc(a1-6)Glc = target: Glc(a1-6)Glc(a1-6)Glc
# In short: as §1
# Glc(b1-4)Glc = target: Glc(b1-4)Glc
# In short: as §1
# Glc(b1-6)Glc = target: Glc(b1-6)Glc
# In short: as §1
# GlcA(b1-3)Gal = target: GlcA(b1-3)Gal
# In short: as §1
binder,measurement,setting,value
Surfactant Protein D (Human); Neck + Carbohydrate Recognition Domain (NCRD) (Homo sapiens) (protein) MLLFLLSALVLLTQPLGYLEAEMKTYSHRTMPSACTLVMCSSVESGLPGRDRDGREGPRGEKGDPGLPGAAGQAGMPGQAGPVGPKGDNGSVGEPGPKGDTGPSGPPGPPGVPGPAGREGALGKQGNIGPQGKPGPKGEAGPKGEVGAPGMQGSAGARGLAGPKGERGVPGERGVPGNTGAAGSAGAMGPQGSPGARGPPGLKGDKGIPGDKGAKGESGLPDVASLRQQVEALQGQVQHLQAAFSQYKKVELFPNGQSVGEKIFKTAQFVKPFTEAQLLCTQAGGQLASPRSAAENAALQQLVVAKNEAAFLSMTDSKTEGKFTYPTGESLVYSNWAPGEPNDDGGSEDCVEIFTNGKWNDIACGEKRLVVCEF,glycan array binding signal (z-score),[1],-0.277
same,glycan array binding signal (z-score),[2],-0.23
same,glycan array binding signal (z-score),[3],-0.26
same,glycan array binding signal (z-score),[4],-0.274
same,glycan array binding signal (z-score),[5],-0.273
same,glycan array binding signal (z-score),[6],-0.278
same,glycan array binding signal (z-score),[7],-0.274
same,glycan array binding signal (z-score),[8],-0.275
same,glycan array binding signal (z-score),[9],-0.275
same,glycan array binding signal (z-score),Gal3S(b1-3)GalNAc,-0.268
same,glycan array binding signal (z-score),Gal3S(b1-3)GlcNAc,-0.269
same,glycan array binding signal (z-score),[10],-0.267
same,glycan array binding signal (z-score),Gal3S(b1-4)Glc,-0.246
same,glycan array binding signal (z-score),Gal3S(b1-4)Glc6S,-0.263
same,glycan array binding signal (z-score),Gal3S(b1-4)GlcNAc,-0.278
same,glycan array binding signal (z-score),Gal3S(b1-4)GlcNAc6S,-0.27
same,glycan array binding signal (z-score),[11],-0.266
same,glycan array binding signal (z-score),Gal3S4S(b1-4)GlcNAc,-0.265
same,glycan array binding signal (z-score),Gal3S6S(b1-4)GlcNAc,-0.262
same,glycan array binding signal (z-score),Gal3S6S(b1-4)GlcNAc6S,-0.264
same,glycan array binding signal (z-score),Gal4S(b1-4)GlcNAc,-0.269
same,glycan array binding signal (z-score),Gal4S6S(b1-4)GlcNAc,-0.267
same,glycan array binding signal (z-score),Gal6S(b1-4)Glc,-0.262
same,glycan array binding signal (z-score),Gal6S(b1-4)Glc6S,-0.258
same,glycan array binding signal (z-score),Gal6S(b1-4)GlcNAc,-0.268
same,glycan array binding signal (z-score),Gal6S(b1-4)GlcNAc6S,-0.273
same,glycan array binding signal (z-score),GalNAc(a1-3)Gal,-0.276
same,glycan array binding signal (z-score),GalNAc(a1-3)GalNAc,-0.277
same,glycan array binding signal (z-score),GalNAc(b1-3)Gal,-0.272
same,glycan array binding signal (z-score),[12],-0.249
same,glycan array binding signal (z-score),GalNAc(b1-3)GalNAc,-0.257
same,glycan array binding signal (z-score),GalNAc(b1-4)GlcNAc,-0.27
same,glycan array binding signal (z-score),Glc(a1-4)Glc,-0.192
same,glycan array binding signal (z-score),Glc(a1-6)Glc(a1-6)Glc,-0.229
same,glycan array binding signal (z-score),Glc(b1-4)Glc,-0.276
same,glycan array binding signal (z-score),Glc(b1-6)Glc,-0.25
same,glycan array binding signal (z-score),GlcA(b1-3)Gal,-0.273
